Measurements: paper PMC9345960, “ERK1/2 inhibits Cullin 3/SPOP-mediated PrLZ ubiquitination and degradation to modulate prostate cancer progression” (Cell Death and Differentiation, 2022)
Where a chain is given by its changes, count along the chain named. Like-named read-outs stand apart in the source and are kept apart here. These are yes or no findings as the source states them, for the method shown. For some assays here: In cells and extracts the contact can be indirect. Some entries that bind do so weakly or less than the wild type. For some assays here: Tags and fused reporters may be left off the sequences shown.

Protein sequences, listed by entry. Tags and fused reporters are not part of them.
UniProt O43791: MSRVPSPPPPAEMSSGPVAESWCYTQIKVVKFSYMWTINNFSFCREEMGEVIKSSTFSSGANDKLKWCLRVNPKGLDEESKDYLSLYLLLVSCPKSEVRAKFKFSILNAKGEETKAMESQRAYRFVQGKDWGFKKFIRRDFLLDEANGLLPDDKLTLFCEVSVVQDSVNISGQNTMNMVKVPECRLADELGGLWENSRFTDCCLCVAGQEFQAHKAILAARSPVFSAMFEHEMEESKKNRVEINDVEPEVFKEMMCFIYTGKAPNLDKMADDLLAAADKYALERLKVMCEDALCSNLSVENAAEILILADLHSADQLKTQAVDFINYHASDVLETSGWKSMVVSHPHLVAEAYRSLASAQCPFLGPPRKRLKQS

How the values were obtained:
[1] = target: T1, Flag-PrLZ (Prostate Leucine Zipper), wild type (UniProt P55327); experiment: co-IP; anti-Flag agarose IP (4 h, 4 °C, EBC lysis buffer) from 293T cells transfected with Flag-PrLZ constructs and Myc-Cullin 3 or HA-SPOP constructs (Figs. 1d, 3b, 4d, 4g, 5b, 5k, 6d); in some panels 20 μM MG132 for 6 h, SCH772984 (3 μM) or IL-6 (50 ng/ml, 48 h) before harvest
T1 sequence: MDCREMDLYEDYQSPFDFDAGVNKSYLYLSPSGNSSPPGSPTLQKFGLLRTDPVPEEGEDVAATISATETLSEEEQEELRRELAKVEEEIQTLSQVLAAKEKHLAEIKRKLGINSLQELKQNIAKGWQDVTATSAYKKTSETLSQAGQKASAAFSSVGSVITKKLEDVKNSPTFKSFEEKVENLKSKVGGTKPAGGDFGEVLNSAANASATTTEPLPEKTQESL

Flag-PrLZ S40D = target: T2, Flag-PrLZ S40D (UniProt P55327); experiment: as above
T2 sequence: T1 sequence with S40D

[2] = target: T3, biotinylated S40A-mutated PrLZ peptide (30-42); experiment: pull-down; biotinylated PrLZ peptide pull-down from WCL of 293T cells transfected with HA-SPOP (Fig. 4k); only the target purified
T3 sequence (peptide, biotinylated (position not stated)): SPSGNSSPPGAPT

[3] = target: T4, biotinylated WT-PrLZ peptide (30-42); experiment: as above
T4 sequence (peptide, biotinylated (position not stated)): SPSGNSSPPGSPT

GST-PrLZ 1-46 = target: T5, GST-PrLZ 1-46 (UniProt P55327); experiment: co-IP; immunoprecipitation assay, Fig. S4a (legend not shown)
T5 sequence: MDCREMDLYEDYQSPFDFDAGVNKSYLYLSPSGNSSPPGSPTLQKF

[4] = target: T6, GST-PrLZ, wild type (bacterial) (UniProt P55327); experiment: pull-down; GST-PrLZ proteins (where indicated first incubated with recombinant ERK1 and ATP for 60 min) and 35S-labeled SPOP with Glutathione Sepharose 4B beads, 3 h at 4 °C; autoradiography (Fig. 5i); only the target purified
T6 sequence: T1 sequence

HA-PrLZ, wild type [5] = target: T7, HA-PrLZ, wild type (UniProt P55327); experiment: co-IP; anti-HA agarose IP (4 h, 4 °C, EBC lysis buffer) from transfected 293T cells: HA-PrLZ with Flag-tagged BTB proteins (Fig. 2a), HA-SPOP WT or mutants with Flag-PrLZ (Fig. 3d), HA-ERK1 or HA-ERK2 with Flag-PrLZ (Fig. 5e); in some panels 20 μM MG132 for 6 h
T7 sequence: T1 sequence

[6] = target: T6, GST-PrLZ, wild type (bacterial); experiment: pull-down; GST pull-down: purified GST-PrLZ and HA-SPOP or His-SPOP incubated 3 h at 4 °C, washed with RIPA buffer, western blot (Fig. 2c: antibody against His); both purified
[7] = target: endogenous SPOP (C4-2 cells) (human (endogenous in C4-2)) (UniProt O43791); experiment: co-IP; anti-SPOP IP of endogenous proteins from C4-2 cells treated with 20 μM MG132 for 6 h (Fig. 2b)
HA-PrLZ, wild type [8] = target: T7, HA-PrLZ, wild type; experiment: co-IP; anti-HA agarose IP (4 h, 4 °C, EBC lysis buffer) from transfected 293T cells: HA-PrLZ with Flag-tagged BTB proteins (Fig. 2a), HA-SPOP WT or mutants with Flag-PrLZ (Fig. 3d), HA-ERK1 or HA-ERK2 with Flag-PrLZ (Fig. 5e); in some panels 20 μM MG132 for 6 h; remark: listed apart in the source

“HA-SPOP, wild type (from UniProt O43791 1-374)” was tested, and the binding [1] was “binds”, the binding (Flag-PrLZ S40D) was “no binding” and the binding [2] was “no binding”. For the same molecule, the binding [3] was “binds” and the binding (GST-PrLZ 1-46) was “binds”.

“35S-labeled SPOP protein (from UniProt O43791 1-374)” was tested, and the binding [4] was “binds”.

For Flag-SPOP (from UniProt O43791 1-374), the binding (HA-PrLZ, wild type [5]) was “binds”.

For “His-SPOP (Abcam, 105599) (from UniProt O43791 1-374)”, the binding [6] was “binds”.

B1: endogenous PrLZ (C4-2 cells) (protein, UniProt P55327 1-224)
chain: T1 sequence
In the case of B1, the binding [7] is reported as “binds”.

B2: Flag-PLZF (protein, UniProt Q05516 1-673)
chain: MDLTKMGMIQLQNPSHPTGLLCKANQMRLAGTLCDVVIMVDSQEFHAHRTVLACTSKMFEILFHRNSQHYTLDFLSPKTFQQILEYAYTATLQAKAEDLDDLLYAAEILEIEYLEEQCLKMLETIQASDDNDTEATMADGGAEEEEDRKARYLKNIFISKHSSEESGYASVAGQSLPGPMVDQSPSVSTSFGLSAMSPTKAAVDSLMTIGQSLLQGTLQPPAGPEEPTLAGGGRHPGVAEVKTEMMQVDEVPSQDSPGAAESSISGGMGDKVEERGKEGPGTPTRSSVITSARELHYGREESAEQVPPPAEAGQAPTGRPEHPAPPPEKHLGIYSVLPNHKADAVLSMPSSVTSGLHVQPALAVSMDFSTYGGLLPQGFIQRELFSKLGELAVGMKSESRTIGEQCSVCGVELPDNEAVEQHRKLHSGMKTYGCELCGKRFLDSLRLRMHLLAHSAGAKAFVCDQCGAQFSKEDALETHRQTHTGTDMAVFCLLCGKRFQAQSALQQHMEVHAGVRSYICSECNRTFPSHTALKRHLRSHTGDHPYECEFCGSCFRDESTLKSHKRIHTGEKPYECNGCGKKFSLKHQLETHYRVHTGEKPFECKLCHQRSRDYSAMIKHLRTHNGASPYQCTICTEYCPSLSSMQKHMKGHKPEEIPPDWRIEKTYLYLCYV
For B2, the binding (HA-PrLZ, wild type [8]) was “no binding”.

B3: Flag-KLHL2 (protein, UniProt O95198 1-593)
chain: METPPLPPACTKQGHQKPLDSKDDNTEKHCPVTVNPWHMKKAFKVMNELRSQNLLCDVTIVAEDMEISAHRVVLAACSPYFHAMFTGEMSESRAKRVRIKEVDGWTLRMLIDYVYTAEIQVTEENVQVLLPAAGLLQLQDVKKTCCEFLESQLHPVNCLGIRAFADMHACTDLLNKANTYAEQHFADVVLSEEFLNLGIEQVCSLISSDKLTISSEEKVFEAVIAWVNHDKDVRQEFMARLMEHVRLPLLPREYLVQRVEEEALVKNSSACKDYLIEAMKYHLLPTEQRILMKSVRTRLRTPMNLPKLMVVVGGQAPKAIRSVECYDFKEERWHQVAELPSRRCRAGMVYMAGLVFAVGGFNGSLRVRTVDSYDPVKDQWTSVANMRDRRSTLGAAVLNGLLYAVGGFDGSTGLSSVEAYNIKSNEWFHVAPMNTRRSSVGVGVVGGLLYAVGGYDGASRQCLSTVECYNATTNEWTYIAEMSTRRSGAGVGVLNNLLYAVGGHDGPLVRKSVEVYDPTTNAWRQVADMNMCRRNAGVCAVNGLLYVVGGDDGSCNLASVEYYNPTTDKWTVVSSCMSTGRSYAGVTVIDKPL
With B3 the binding (HA-PrLZ, wild type [8]) was “no binding”.

B4: Flag-KLHL3 (protein, UniProt Q9UH77 1-587)
chain: MEGESVKLSSQTLIQAGDDEKNQRTITVNPAHMGKAFKVMNELRSKQLLCDVMIVAEDVEIEAHRVVLAACSPYFCAMFTGDMSESKAKKIEIKDVDGQTLSKLIDYIYTAEIEVTEENVQVLLPAASLLQLMDVRQNCCDFLQSQLHPTNCLGIRAFADVHTCTDLLQQANAYAEQHFPEVMLGEEFLSLSLDQVCSLISSDKLTVSSEEKVFEAVISWINYEKETRLEHMAKLMEHVRLPLLPRDYLVQTVEEEALIKNNNTCKDFLIEAMKYHLLPLDQRLLIKNPRTKPRTPVSLPKVMIVVGGQAPKAIRSVECYDFEEDRWDQIAELPSRRCRAGVVFMAGHVYAVGGFNGSLRVRTVDVYDGVKDQWTSIASMQERRSTLGAAVLNDLLYAVGGFDGSTGLASVEAYSYKTNEWFFVAPMNTRRSSVGVGVVEGKLYAVGGYDGASRQCLSTVEQYNPATNEWIYVADMSTRRSGAGVGVLSGQLYATGGHDGPLVRKSVEVYDPGTNTWKQVADMNMCRRNAGVCAVNGLLYVVGGDDGSCNLASVEYYNPVTDKWTLLPTNMSTGRSYAGVAVIHKSL
In the case of B4, the binding (HA-PrLZ, wild type [8]) is reported as “no binding”.

B5: Flag-KLHL22 (protein, UniProt Q53GT1 1-634)
chain: MAEEQEFTQLCKLPAQPSHPHCVNNTYRSAQHSQALLRGLLALRDSGILFDVVLVVEGRHIEAHRILLAASCDYFRGMFAGGLKEMEQEEVLIHGVSYNAMCQILHFIYTSELELSLSNVQETLVAACQLQIPEIIHFCCDFLMSWVDEENILDVYRLAELFDLSRLTEQLDTYILKNFVAFSRTDKYRQLPLEKVYSLLSSNRLEVSCETEVYEGALLYHYSLEQVQADQISLHEPPKLLETVRFPLMEAEVLQRLHDKLDPSPLRDTVASALMYHRNESLQPSLQSPQTELRSDFQCVVGFGGIHSTPSTVLSDQAKYLNPLLGEWKHFTASLAPRMSNQGIAVLNNFVYLIGGDNNVQGFRAESRCWRYDPRHNRWFQIQSLQQEHADLSVCVVGRYIYAVAGRDYHNDLNAVERYDPATNSWAYVAPLKREVYAHAGATLEGKMYITCGRRGEDYLKETHCYDPGSNTWHTLADGPVRRAWHGMATLLNKLYVIGGSNNDAGYRRDVHQVACYSCTSGQWSSVCPLPAGHGEPGIAVLDNRIYVLGGRSHNRGSRTGYVHIYDVEKDCWEEGPQLDNSISGLAACVLTLPRSLLLEPPRGTPDRSQADPDFASEVMSVSDWEEFDNSSED
With B5 the binding (HA-PrLZ, wild type [8]) was “no binding”.

B6: Flag-KLHL37 (protein, UniProt O14682 1-589)
chain: MSVSVHENRKSRASSGSINIYLFHKSSYADSVLTHLNLLRQQRLFTDVLLHAGNRTFPCHRAVLAACSRYFEAMFSGGLKESQDSEVNFDNSIHPEVLELLLDYAYSSRVIINEENAESLLEAGDMLEFQDIRDACAEFLEKNLHPTNCLGMLLLSDAHQCTKLYELSWRMCLSNFQTIRKNEDFLQLPQDMVVQLLSSEELETEDERLVYESAINWISYDLKKRYCYLPELLQTVRLALLPAIYLMENVAMEELITKQRKSKEIVEEAIRCKLKILQNDGVVTSLCARPRKTGHALFLLGGQTFMCDKLYLVDQKAKEIIPKADIPSPRKEFSACAIGCKVYITGGRGSENGVSKDVWVYDTLHEEWSKAAPMLVARFGHGSAELKHCLYVVGGHTAATGCLPASPSVSLKQVEHYDPTINKWTMVAPLREGVSNAAVVSAKLKLFAFGGTSVSHDKLPKVQCYDQCENRWTVPATCPQPWRYTAAAVLGNQIFIMGGDTEFSACSAYKFNSETYQWTKVGDVTAKRMSCHAVASGNKLYVVGGYFGIQRCKTLDCYDPTLDVWNSITTVPYSLIPTAFVSTWKHLPS
With B6 the binding (HA-PrLZ, wild type [8]) was “no binding”.
